# Test results published in PubChem BioAssay AID1347071 (National Center for Advancing Translational Sciences (NCATS), 2019).
# The whole screen tested about 410,000 compounds, of which about 260 (0.063%) were called active. This list was built around the results that the source calls inconclusive (neither active nor inactive); the mix of calls is not that of the screen. Calls follow the shape of the dose curve; as a rule, active = well fitted activation curve with a large enough effect; inconclusive = small, poorly fitted or top-dose-only effect; inactive = no such curve, though single readings can be large or run the other way. No potency is given beside an inconclusive call; the fits are too rough.
# Assay: qHTS for compounds that reverse cellular toxicity of Amyloid beta (A-beta) peptide in yeast: Primary Screen; also: nearly all actives have a fitted effect of over 55% in size
# Conditions: yeast expressing A-beta42, growth rescue, OD600, 48 h; growth rescue: at 46.1 µM (top of the series), 0% DMSO, 100% iron-clioquinol control
# Summary of the method: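 Yeast growth medium received pinned compounds, then yeast cells expressing toxic A-beta were added; plates incubated at 30 C for 48 hr. Growth read as absorbance at 600 nm, normalized to DMSO and equimolar FeCl3 plus clioquinol controls.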
# Potency is read from the fitted curve at half-maximal effect; tags tell the direction and shape of the fitted curve.
Structure (SMILES),Potency,growth rescue
CCS(=O)(=O)N1CCN(Cc2ccccc2OC)CC1,inactive,–
Cc1c(C)n(CC(O)CSc2ccccc2)c2ccccc12 (centres undefined),"inconclusive [activator, single point]",–
O=C(NCC1CCCO1)c1ccc(/C=N/O)nc1 (centres undefined),"inconclusive [activator, partial curve, poor fit]",–
S=c1[nH]nc(C2CC2c2ccc(Cl)cc2)n1-c1ccc(Cl)cc1 (centres undefined),"inconclusive [activator, full curve]",–
COc1ccc(OC)c(S(=O)(=O)Nc2cc(Cl)cc(Cl)c2)c1,"inconclusive [activator, partial curve, poor fit]",–
Cc1cc(C)cc(-n2ccnc2SCC(=O)Nc2ccc3c(c2)OCO3)c1,inactive,–
CC(C)C(NC(=O)c1ccc(F)cc1)C(=O)N1CCC1 (centres undefined),"inconclusive [activator, single point]",–
CCOC(=O)c1cccc(NC(=O)CCS(=O)(=O)c2ccc(Br)s2)c1,"inconclusive [activator, partial curve, poor fit]",–
CCC1CCCCN1C(=S)Nc1ccc(SC(F)F)cc1 (centres undefined),"inconclusive [activator, single point]",–
COc1cccc(C2C(C(=O)Nc3ccc(Cl)cc3)=C(C)Nc3c(C(=O)Nc4ccccc4)cnn32)c1OC (centres undefined),"inconclusive [activator, full curve]",–
Cc1cccc(-c2n[nH]c(=S)n2/N=C/c2ccco2)c1,"inconclusive [activator, single point]",–
O=S(=O)(c1ccccc1)N1CCC(Oc2ccc(-n3cnnn3)cc2)CC1,inactive,–
CC1CCCCN1S(=O)(=O)c1ccc(F)c(C(=O)Nc2ccccc2C(F)(F)F)c1 (centres undefined),"inconclusive [activator, single point]",–
CCCC1C2C(=O)N(c3cccc(C)c3)C(=O)C2ON1c1ccccc1 (centres undefined),"inconclusive [activator, single point]",–
O=C(Nc1ccc(Cl)cc1)NN1CCCCCC1,"inconclusive [activator, partial curve, poor fit]",–
CC(=O)Nc1cc(C(=O)NCc2ccc(F)cc2)ccc1Sc1ccc(C)cc1,inactive,–
CCc1nc2ccc(C(=O)Nc3cc(-c4ccccc4)ccc3OC)cn2c1N(C)CCCc1ccccc1,inactive,–
COc1ccc(C)cc1NC(=O)c1cc2c(s1)-c1ccccc1SC2,inactive,–
CCOC(=O)c1c(-c2ccc(F)cc2)csc1NC(=O)CCN1CCOCC1,inactive,–
CCN(CC)S(=O)(=O)c1ccc2c(c1)c(=O)c(C(=O)N(C)Cc1ccccc1)cn2C,inactive,–
Cc1cccc(N(C(=O)c2csnn2)C(C(=O)NCc2ccccc2)c2ccc(C)o2)c1 (centres undefined),"inconclusive [activator, single point]",–
COc1ccc2c(CCNC(=O)/C=C/c3ccc(OC)c(OC)c3)c[nH]c2c1,–,inconclusive: 40.9% [activator]
COc1ccccc1C(=O)NS(=O)(=O)c1ccc(C)cc1,inactive,–

Structure (SMILES),Potency,growth rescue
Cc1cccc(C(=O)Nc2ccc(C(=O)/C=C/c3cccs3)cc2)c1,"inconclusive [activator, full curve, poor fit]",–
CNc1nc(-c2ccccn2)nnc1-c1ccccc1,"inconclusive [activator, single point]",–
O=C(CSc1nnnn1C1CC2CCC1C2)Nc1ccnc2ccccc12 (centres undefined),"inconclusive [activator, partial curve, poor fit]",–
Cc1ccc2[nH]c(CSc3nnc(NC(=O)COc4ccccc4C)s3)cc(=O)c2c1,inactive,–
COc1ccc([N+](=O)[O-])cc1NCc1ccco1,"inconclusive [activator, full curve, poor fit]",–
CCc1ccccc1NS(=O)(=O)c1ccc(-c2coc(C)n2)cc1,inactive,–
CCCS(=O)(=O)NC(=O)C1(C)CCCN(C(=O)c2cccc(C(F)(F)F)c2)C1 (centres undefined),inactive,–
CCOC(=O)c1csc(NC(=O)COc2ccc(Cl)cc2Cl)n1,"inconclusive [activator, partial curve, poor fit]",–
COC(=O)c1ccc(OC)c(CN2CCCN(Cc3ccc(C)cc3)S2(=O)=O)c1,"inconclusive [activator, single point]",–
COc1ccccc1CNC(=O)Cn1c(-c2cccs2)cc2cc(F)ccc21,"inconclusive [activator, partial curve]",–
O=C(Nc1ccccc1Cl)NN1CCCCCC1,"inconclusive [activator, partial curve]",–
CCOC(=O)C1=C(CN2CCN(c3ccccc3F)CC2)NC(=O)NC1c1ccc(OC)cc1 (centres undefined),inactive,–
CCCC(=O)c1ccc(N2CCN(S(=O)(=O)c3ccccc3)CC2)c(F)c1,"inconclusive [activator, partial curve, poor fit]",–
COc1cc(-c2nnc(SCC(=O)/C(C#N)=C(\C)N)o2)cc(OC)c1OC,"inconclusive [activator, partial curve, poor fit]",–
N#CC1C(=O)NC(c2ccccc2)=CC1c1ccccc1 (centres undefined),"inconclusive [activator, full curve]",–
NC(=S)N/N=C/c1ccccc1OCc1cccc(Cl)c1,"inconclusive [activator, partial curve, poor fit]",–
COc1ccc(-c2cc(=O)oc3c(C)c(OCc4nn[nH]n4)ccc23)cc1,"inconclusive [activator, full curve]",–
CC(C)CN1C(=O)CSCC1(C)C(=O)NCc1ccccc1 (centres undefined),inactive,–
O=C(CSc1ccccc1F)Nc1ccc(N2CCOCC2)cc1,inactive,–
Cc1ccc(S(=O)(=O)NC(CC(=O)NCc2ccco2)c2ccco2)cc1 (centres undefined),inactive,–
Cc1c(NC(=O)C(C)OC(=O)CCc2ccccc2)c(=O)n(-c2ccccc2)n1C (centres undefined),"inconclusive [activator, partial curve, poor fit]",–
CS(=O)(=O)N(CC(=O)NC1CCCCCC1)Cc1ccc(Cl)cc1,"inconclusive [activator, partial curve, poor fit]",–
O=C(NCc1cccs1)C1CCN(C(=O)N2CCOc3ccccc32)CC1,inactive,–

Structure (SMILES),Potency,growth rescue
CC1(C)c2cc(Cl)ccc2-n2c1cc(O)c(-c1ccccc1)c2=O,"inconclusive [activator, partial curve]",–
C=CCCC(=O)N1CCC(CCC(=O)NC2CC2)CC1,inactive,–
Cc1ccc(N(CC(=O)N2CCN(c3ccc(Cl)cc3)CC2)S(=O)(=O)c2c(C)noc2C)cc1,"inconclusive [activator, single point]",–
O=C(NC(=S)NC1CCCC1)c1ccccc1,"inconclusive [activator, partial curve, poor fit]",–
CC1=Nn2c(nc(-c3ccccc3)c2-c2ccccc2)N(CC(N)=O)C(=O)C1,"inconclusive [activator, partial curve, poor fit]",–
S=c1[nH]nc(-c2ccc(Cl)cc2)n1-c1ccc(Cl)cc1,active: 10 µM,–
Cc1nn(S(=O)(=O)c2ccccc2)c(C)c1Sc1ccc([N+](=O)[O-])cc1,"inconclusive [activator, partial curve, poor fit]",–
Cc1ccc(-n2ccnc(NCCc3ccc(S(N)(=O)=O)cc3)c2=O)cc1C,inactive,–
CCOC(=O)C1CCCN(C2CC(=O)N(c3ccc(C(C)C)cc3)C2=O)C1 (centres undefined),inactive,–
CN(C)S(=O)(=O)Oc1ccccc1C(=O)Nc1cccc(C(F)(F)F)c1,"inconclusive [activator, partial curve, poor fit]",–
C[C@H](c1ccccc1)N1C[C@H](COCc2ccccc2)Oc2cc(N3CC[C@@H](O)C3)ccc2S1(=O)=O,"inconclusive [activator, partial curve]",–
CC1(c2ccc([N+](=O)[O-])cc2)Nc2ccccc2S1 (centres undefined),"inconclusive [activator, partial curve, poor fit]",–
CC(C)C[C@H](NC(=O)OC(C)(C)C)c1nnc(SCc2ccccc2)o1,inactive,–
C/C(CCC(C)C)=N\NC(=S)NCc1ccccc1,"inconclusive [activator, single point]",–
Cc1ccc(S(=O)(=O)NCCc2csc(-c3ccc(Cl)cc3)n2)cc1,"inconclusive [activator, full curve]",–
Cc1ccc(NC(=O)CSc2nnc(-c3ccccc3Br)o2)cc1C,"inconclusive [activator, partial curve, poor fit]",–
CCOc1ccc(CCN2C(=S)N([C@@H](CC(C)C)CN3CCCC3CN3C(=S)NC[C@@H]3CC(C)C)C[C@@H]2CC(C)C)cc1 (some centres undefined),"inconclusive [activator, single point]",–
Cc1ccc(S(=O)(=O)CC(O)COc2ccc(F)cc2Cl)c(C)c1 (centres undefined),"inconclusive [activator, single point]",–
COc1ccc(-c2ccc(C(=O)Nc3ccccc3)c3occc23)c(C)c1,inactive,–
CC(C)NC(=S)N/N=C1\CCCc2ccccc21,"inconclusive [activator, partial curve, poor fit]",–
C=CCN=c1scc(-c2ccc(F)cc2)n1/N=C/c1ccccn1,"inconclusive [activator, single point]",–
Cc1cc(Cl)cc(Cl)c1OCC(=O)NCc1ccco1,inactive,–
O=C(CN1C(=O)CCn2nc(-c3ccccc3)cc21)NCc1ccc(F)cc1,inactive,–
